Test results as given in the RNAGym collection of RNA variant scans (doi:10.7554/elife.90254).
The source gives no read counts; variants with many changes may rest on few reads.

B1: OR4K15 (parent)
chain: GUUAACGGUCAUAGGCCAUGGAAACUAGGAGCACCAUUUCGCUGCCAGUGAAGAAAUGAACAAAGAAAAUCUGGGCCAGGCAGGCAUCAAAAGAAAUAGUCUUGCGCUCAACCAGAAAGUCUGUAAUCAUUUUAAGGGUA

Variants of: B1
Experiment: self-cleavage, relative activity (ratio to wild type); higher = more cleavage; in vitro, sequencing; the parent is a self-cleaving ribozyme

Variant | self-cleavage
A51U A110G A117G | 0.06
A52G A90G A94G A96G | 0.64
A51U A66G A134G | 1.7
A52U U102C A116U | 0.21
A52G U139A A140G | 1.4
A52U A90G A126U | 0.79
A51U A69G A117U | 0.46
A54G U70C G80U A96G A140G | 0.13
A54G A82U A94G U122C | 0.15
A51G A68U A78U | 0.31
G53A U124C A135G | 1.6
A51G A67G U131C | 1.49
A54G A89C A111G | 0.01
A51U A117G U127C | 1.73
A52G A78G U130C | 0.21
A54U A60G U70A | 0.87
A51U U102A A118G | 0.4
G53A A62G A95U A98C U122C G138U | 1.64
A52G A78C A135U | 0.17
A52G U72C A114G | 1.71
A52G A86U A116C U130A | 0.04
A54G U72A C105U A111G | 0
A52G U87C A95G A114U | 0.05
A52G A86G U97C A111G A114G | 0

Variant | self-cleavage
A52G A91G U100C U108C A114U U127C | 0.01
A52G A110G A116G | 0.03
A52U A54G U70C | 0.41
A52G G74A A91G | 0.18
A52G U130C U131C | 1.47
A52G A66G A69G | 0.53
A51G U100C A126G | 1.04
A51U A59G A118G A129G U130C U132A | 0.53
A51U A82U U127A U131C | 0.2
A51U A62G A67C U87C | 0.91
A52G A66U U133C | 0.83
A54G A55G U120C | 1.38
A54U A56G A110U | 1.35
A54G A60G A62U A90G A110C | 0.08
A54G A55U U103C | 0.32
A52G A56G A69U A86G | 0.63
A51U G58U A90G | 1.21
A52G G73A U108C U130A | 0.02
A54U A69G U124C | 0.08
A54G A82G G83U A91G U100C | 0.31
A52G U70A A125G | 0.57
A54G A86G U124C | 1.28
A52G A69G A91G | 1.29
A52U A64G A86C A129G U133C | 0.91

Variant | self-cleavage
A52U A66U A78G | 0.09
A51G U102C U120C | 1.96
G53U A82G A117G | 0.98
A52G U57C A82G A111G | 0.03
A51G U102G U103C U108A | 0.02
A54U A82G U102C U130C | 0.72
A51U A90G A95G | 2.19
A51G A91U A114G U130C | 0.05
A51G A96G A126G | 1.57
A54G A78U A116G A125G | 0.02
A52G U57A A129G | 0.75
A52G A59G A62U A94G U97C | 0.89
A52G A62G A86G | 0.85
A52G U122C U131C | 0.6
A51G U57C A63G A89U | 0.56
A52G A67G U87C | 1.25
A52G A86C A91G U130C A140G | 0.56
G53A A55G A66G A90G | 0.94
A51G A78U U102C U132C | 0.96
A51G G83A U131C | 1.75
A54G A63G A78G | 0.33
A54G U57C A95G | 1.57
A52G A89U U122A | 1.2
A54G A69G U131C | 0.43

Variant | self-cleavage
A52G A89G A90G A111G | 0.04
A51G A95U U124A A134G | 0.78
A52U A62G U122C | 0.8
A52G A68G A94G | 1.3
A52U U57C U120A G136U | 0.73
A51U A52G U132C | 1.03
A52G A63G A125G | 0.62
A54G U70C A90G A92G | 0.47
A51U A66G A90G A91U A95G | 2.89
A54G A89G U132A | 0.84
A54G U72C U103C | 0.11
A54G A55G U70C A96G A98G | 0.15
A51G A117G A135G | 1.78
A52G C61U A67G A90G | 1.01
A52G A63G A82G | 0.68
A54G A63G C109U | 0.42
A52G A68G A86G A116G A129G U139A | 0.47
A54G A56G A94G U124A | 0.55
A51U G99C A134G | 0.3
G53A A54G A60G | 1.32
A51U C77U U108C | 0.02
A54G A67G A90G A98U | 2.16
A52G U100C G106A | 0.01
A52G U100C U103C | 2.26

Variant | self-cleavage
A51G U70C A82C A86G A129U | 0.05
A52G G58U A95G C113U | 0.07
A54G A56G A62G G73A U108C | 0.02
A52G A66C U87A | 1.09
A52U A64G A68G A82G A126G | 0
A54G A69G U103G | 0.01
A51U A60G A69G | 1.59
A51G C61U A68G A126G | 1.78
A52G A55G A116G | 0.3
A51G A69G U72C A111G A129G | 0.01
A52G A114C U122C | 0.02
A51G A67U A96G A117G | 1.45
A54G A55G C101U U103C | 0.05
A52G A54G G83A | 1.12
A51U A55G A66C U100C U108C | 0
A52U A56G A69G U87C | 0.37
A51G A90G C105U | 0.04
A51G U87C G93A | 2.11
A51G A110U A114G | 0.43
A54G A94G G138A | 0.73
A51G U57C C77A | 0.76
A54G A60G A68U A117G | 0.71
A52G A63G A82G A92G C105U | 0.05
A52G A67G A116G A126G | 0.07

Variant | self-cleavage
A54G A55G U130C | 1.07
A52G A68G A94G U102C | 1.04
A52G A117G A129G | 1.01
A54G A60G U108C A110U | 0.02
A51G A96G A116G | 0.29
A54G A68G A91G | 1.29
A54G U70C A96G | 1.33
A52G A55G G137C | 1.16
A54G A66G U127C | 1.26
A54U A62U U100C U122A U132C | 1.92
A51G A89G A118G | 0.86
A54U A69G C88A A90G | 1.36
A51U A82G U108C A116G | 0.02
A52G U97C U108C | 0.02
A51G A94U U102C | 2.05
A51G A86G U124C | 0.66
A54G A60G U108C | 0.03
A54G A64G A117G | 1.28
A51U A64G G104U U120C | 0
A54G A68G A126G U127C | 0.94
G53A A91G U103C A114G A129U | 0.06
A52G A62G A78G A91G | 0.16
A52G A90G A92U G119A | 1.07
A51U A56G A60G U97A U102C A111G A117G | 0

Variant | self-cleavage
A52G A56U A60G | 0.53
A52U A69G C105G | 0.06
A54G U57G U87C U102C A118G | 1.49
A52G U72C A96G | 0.18
A51U A78G U102C | 0.28
A54G U100C A114G | 0.67
A54G A55G A92G A95G U131C | 1.34
A51G A86G A95G U100C U130C | 2.53
A51G A78C A96G U108A | 0.02
A54G A60G U100C A118G U120C | 0.56
A54G A86G A90G | 0.67
A54G A78U A98U A110U U132C | 0.22
A52U A94G G106U U108C | 0.01
A51G A129G U131C | 1.34
A52G A92U U133C | 1.83
A52G G80A U133A A140G | 0.05
A51G A90G A117U | 1.04
A52G A55G A78U | 0.23
A51G U57A A96G A134G | 1.22
A52G U103C A135U | 0.78
A52G U120C U132C | 0.38
A51G A68U U124C | 1.3
A51U U72A C109U | 0.08
